Test results: the supplement of paper PMC11417369
This is one part of the list.

tested on: PfSIP2 AP2 domain 1 (GST-tagged); test: gcPBM binding intensity (ln(normalized median fluorescence intensity)); higher = stronger DNA binding
Outline: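 Probes on an Agilent 4 × 180k array were primer-extended, double-stranded and 36 bp long, taken from intergenic genomic regions, with negative controls added. GST-tagged P. falciparum DNA-binding domains from E. coli, about 25 μg on average, were applied to the array for 1 h in 1× PBS containing 1% milk, 0.2 mg/ml BSA, 0.5% salmon testes DNA and 0.03% Triton X-100. Binding intensity, obtained after Alexa488 anti-GST antibody detection and a 488 nm scan, is the highest Masliner-normalised natural-log median intensity across replicate spots of either probe orientation.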

Row | Sequence | gcPBM binding intensity (ln)
1 | TTACTCATGAAAGATACACACATTCGTTATTTATAT [CACACA_site7517] | 6.97
2 | TTTTTATAATGATACATATATTATTTTATTCTTAAT [CACACA_negctrl_site124] | 6.82
3 | GAAGAAGTTTAAAAAGCACACAAAAAAAAAAAAAAA [CACACA_site9088] | 6.9
4 | CACAAAATAAATTAAACACACAACATCATATATGTA [CACACA_site846] | 6.83
5 | TATTTATAAACATACGCACACATTAATATATATATA [CACACA_site9314] | 8.85
6 | TAAATTATTATCCCCTCACACACAAAAATAAAAAGA [CACACA_site2886] | 7.67
7 | CTTGTAGATATAAAATGTACAAAAATAAATTGCACA [XGTACX_site4409] | 9.01
8 | ATTATTATTAATCTTGTGCACATATATTTTAATTAG | 9.68
9 | AGATATTCTACTATGTGTACATATATATATATAATT [XGTACX_site5060] | 7.18
10 | AAATAAATACATAATACATGCATATTTAATATATAG [TGCATGCA_site135] | 6.85
11 | GTACAATCATATACTACATGCAGTTTTTTTTATTGA [TGCATGCA_site230] | 7.25
12 | AATTTTTTTTAATGATGTACTTTTTGAAAATAAACT [XGTACX_site4221] | 7.1
13 | TTTTCTTTTTCTTGTACACACATAATATGGATGAAA [CACACA_site808] | 7.14
14 | ATATATATATATATTTATTCATATATTTTTTGTCTT [TGCATGCA_negctrl_site58] | 9.33
15 | TAAAGAAACGCATCGACGCACACTACAAAATAAAAA [CACACA_site1348] | 6.93
16 | TTTTTATTTTTTCAGTGTACATTTAAATTATCTTAT [XGTACX_site3905] | 6.98
17 | AAATAATTTATGCATACACACATATATATATATATA [CACACA_site4020] | 9.78
18 | TTACTTTTTTTTTTATGTACTTATATTTTTTACACT [XGTACX_site3503] | 6.95
19 | TATGAATACATTTGTTGTACTTAAATTTCCTTTATT [XGTACX_site5374] | 6.8
20 | TATAAATATCTGAATTGTACAGGTGAAAAAAAAAAT [XGTACX_site1867] | 7.43
21 | TTTTTTATTATTATTATTTTTTATGTATAATAATGT [CACACA_negctrl_site631] | 6.85
22 | TAGATATATAAATACACACACATACACAAAAAAAAA [CACACA_site7652] | 6.98
23 | AATATGTGAATATAATCACACACAATACGGAAACAC [CACACA_site8875] | 8.19

Row | Sequence | gcPBM binding intensity (ln)
24 | AAAGAAGGATAATAATGTACAAGCAAAAAAATAAAA [XGTACX_site466] | 7
25 | AAATAATTATTTATCACACATATGTATTTATATATA [CACACA_site4589] | 7.1
26 | CTTTTTTTAATGATAACACACATGTTGTGCATAGAC [CACACA_site3270] | 8
27 | ACATATATTTCAAAGTGTACGCACAATTTTTTTTAC [XGTACX_site6166] | 7.48
28 | AACATATATATAATATGTACATAATATATATAAATG [XGTACX_site1161] | 6.9
29 | TTAGTTTCCCAAATATGTACATAAATATAAATCATA [XGTACX_site2746] | 7.19
30 | TTATTATTTTTTAACACACACATATATATTATATCT [CACACA_site4906] | 7.06
31 | GTAAGAACACTTTTGTGGTTACTTAAAAGTGTATAT [GTGCAC_negctrl_site422] | 6.92
32 | ATTTCAACAAATATAACACACAATGGATAAGAATAA [CACACA_site1974] | 7.13
33 | TGCTTATATGTTGTTACACACTAAAATAGTTAGATA [CACACA_site1277] | 7.09
34 | AATACAGTTAGAGAAAGTACACAACTAATATACATA [XGTACX_site8814] | 7.27
35 | ATTTTGTTATGAAACACACACATATAAATATAAATA [CACACA_site7679] | 7.26
36 | AATACACGCAGACACACACACAAAAAAAAAAAAAAA [CACACA_site6384] | 7.2
37 | TATATAAAACATGGGTGTACCAACATAAATCATATA [XGTACX_site2320] | 6.88
38 | AATTGTGCATTATATTGTACACGTGTTGTATATATT [XGTACX_site975] | 8.21
39 | TTGAATATGGTTACATGTACGTATCAATATTTTTTA [XGTACX_site4247] | 6.79
40 | TATACATTATTATTATGTACTTAAATATATATTATA [XGTACX_site5173] | 7.11
41 | ATTAACACATTTAAGTGTACATATATAAATATATAT [XGTACX_site7098] | 7.07
42 | ATATAACTCAAGGGCACACATATACCTTTCCTTTTT [CACACA_site4390] | 7.1
43 | GGAACGTATATTTTCACACACTCTCAAAAGTACAAG [CACACA_site2301] | 7.09
44 | GAAACAAAATTATTTTGTACATATGACTGTAGATAT [XGTACX_site972] | 7.11
45 | TGTGCACGTTCTGTGACACACATTTAAATGTGCTTA [CACACA_site176] | 10.7
46 | ATATATATATATAGTTGTACTTAATTTTATATGTTA [XGTACX_site5256] | 9.28

Row | Sequence | gcPBM binding intensity (ln)
47 | TATATTATTTATTAGACACACATTATTAAAATATTT [CACACA_site4737] | 6.82
48 | TGTTGTATATCTCTATATAGCTATATTGTATATATA [TGCATGCA_negctrl_site323] | 6.97
49 | GTGAAATTATTTCCGTGTACACATAAATATATATTT [XGTACX_site3989] | 7.38
50 | CCTTGATATATATAAAGTACATATATATATATATAT [XGTACX_site4325] | 9.9
51 | AAACTTATAAAAAGTAGTACCATAAAATAATACATA [XGTACX_site6523] | 6.94
52 | TTTTACAAATATTACTGTACACATTTTCATATAATT [XGTACX_site17] | 7.01
53 | AAATAATACCAAATGTGTACTTATTTCACTAATAGA [XGTACX_site7571] | 6.92
54 | ATATATACTTATATTTGTACACAAAGGTATCTCTAG [XGTACX_site3805] | 6.88
55 | GGAATAATAAAATTATGTACATAAGAATCATATACT [XGTACX_site6810] | 6.98
56 | AAAAAAAAAAATCGCTGTACTTCTAAAGGTGTGTTA [XGTACX_site843] | 6.88
57 | CAAACAAACGGACACACACACACACCCAAAAATGAT [CACACA_site5363] | 7.2
58 | AGTTTTATATAAGCTTGTACTTAATATTATTAAGTA [XGTACX_site5919] | 6.99
59 | TTTGATAAATTATACACACACAATATATATAAAATA [CACACA_site2023] | 7.11
60 | ACGGACTTAAAATACACACACACCAAAAAAAAAAAA [CACACA_site7304] | 7.19
61 | AATAATATATAATAATGTACAAAAAAAAAAAAAAAA [XGTACX_site4158] | 6.98
62 | AAGCTTTGGTGTTATGCATGCAATTAAACTATTAGT [TGCATGCA_site277] | 7.16
63 | TTTTATTTTTTAGTAGTACACACTTTTTGTACCTTT [CACACA_site599] | 7.04
64 | TATTTTAATTAATATACACACGCTTATATATATATA [CACACA_site7909] | 9.02
65 | TTTCTTTTTTTTTTTTGTACATATTTTAATTATTTT [XGTACX_site8676] | 7.24
66 | TATTATATATATAACTGTACGTTTATAATATAAAAA [XGTACX_site3778] | 7.45
67 | TACAAACTATGATGCACACATATATATCTGTATCCA [CACACA_site4809] | 7.24
68 | AGTGTTAAAAATGAGGGTACATATAAAATACAGTTC [XGTACX_site457] | 7.05
69 | TAATCATTTTAGCTTACACACAAAATTTGGTTATAA [CACACA_site5604] | 6.85

Row | Sequence | gcPBM binding intensity (ln)
70 | ACAGGATTGGTTCAAACACACATATTATATGACTAT [CACACA_site4536] | 6.81
71 | CATATATAAATATGTATGCACTTTAACAAAATGTAT | 7.74
72 | ATTCCACCTTAAAACTGTACTTTCTCAATCTTTTAT [XGTACX_site796] | 7.22
73 | ATATTTATTTATATGTGTACTTATGTTTATATAAAA [XGTACX_site4250] | 7.27
74 | ATTATGTTATATACACGTACGTGTGCTTTATAATTA [XGTACX_site2728] | 7.36
75 | ATAAAGTAGATATTTTGTACGCAGGTTGTATATATT [XGTACX_site1464] | 7.12
76 | TACTTTACTAATATATATAGGAGAGTATACATGAAA [CACACA_negctrl_site63] | 7.09
77 | GGAATTATAATAAATGGTACACATAAAAAAAAAAAA [XGTACX_site8343] | 7.05
78 | TAATAAATAGGACACACACACATATATATATATTAT [CACACA_site4891] | 7.33
79 | TTTTTTAAAAGAAAATAAAAAATAAGCATAATATGA [CACACA_negctrl_site1574] | 7.06
80 | AAGGGTTATTTGATATGTACTTATATATATATATAA [XGTACX_site1659] | 7.2
81 | AAGGTGGAAACAATTACACACACACTAATAAAAAAA [CACACA_site9051] | 6.94
82 | AAGTACAAATTTAATAAAAATGAAACAAATATGTAT [TGCATGCA_negctrl_site94] | 7.06
83 | ATGGAATTTTTAGAATATGGATAATGTTACTTAAGT [CACACA_negctrl_site494] | 7
84 | AAAAACCATGGGCACACACACATAATATATAATATA [CACACA_site1425] | 7.06
85 | GTTATATATATATATATATATATATATATTTTTTTT [GTGCAC_negctrl_site597] | 7.92
86 | TATATCGTTAATTATACACACATAAAATTAAACTTT [CACACA_site1274] | 7.23
87 | AAATTAAAAAAGAATATACACACCAAAACTGTTTGT [CACACA_site958] | 6.73
88 | TAAAAAAAGGAAAACATACAATTCTATTTTTCAATA [CACACA_negctrl_site474] | 6.5
89 | ACCATACATACATACACACACACACGCATATTTATA [CACACA_site7386] | 7.69
